The whole screen tested about 52,000 compounds, of which about 1,700 (3.3%) were called active. Cut-off read from the data, not from the text of the source: active = survival mostly below about 52% (no sharp cut-off); inactive = mostly above about 56%. This is one part of the list.

In this assay the test system is Wild type. Nature of the assay: S. aureus survival, RN4220 and DeltatarO strains – OD600, teichoic acid synthesis inhibitors, primary screen (AID 463173). The settings on record: S. aureus RN4220 wild type/DeltatarO growth, OD600, 18 h, hits give low values, screened at 18.75 µg/mL (by protocol).
For the compound `O=C(Cn1cc(S(=O)(=O)Cc2ccccc2F)c2ccccc21)Nc1ccc(F)c(Cl)c1`, the survival was inactive: 77%.
Consider `COc1ccc(CNc2ncnc3c2c(-c2ccccc2)cn3-c2ccc(C)c(Cl)c2)cc1`, for which the survival was inactive: 73%.
Regarding `COc1ccc(NC(=O)Cn2c(=O)n(-c3ccc(OC)cc3)c(=O)c3sc4ccccc4c32)cc1`, the survival is inactive: 134%.
For the compound `COc1ccc2c(CNCc3ccco3)c(C(=O)O)n(Cc3cccc(F)c3)c2c1`, the survival was inactive: 57%.
Turning to `COc1cccc(C(=O)Nc2nc(-c3nnn(-c4cccc(Cl)c4C)c3C)ns2)c1`, the survival was active: -6%.
The result for `COc1ccc(C(=O)Nc2ccc(-c3nc4ccccc4s3)c(Cl)c2)cc1Cl` reads inactive: 98%; that for `Cn1c(NCCCO)nc2c1c(=O)n(Cc1cccc(F)c1)c(=O)n2C`, inactive: 88%; that for `CCCN(CCC)C(=O)C1CCN(c2cc(C)nc3c(-c4ccc(Cl)cc4)c(C)nn23)CC1`, inactive: 87%.
For `O=C(NCCO)c1ccc(-c2nnc(Nc3ccc(OC(F)(F)Cl)cc3)c3ccccc23)cc1`, the survival was inactive: 126%.
Turning to `COc1cc(C(=O)Nc2cc(C)c(O)c(-c3nc4ccccc4s3)c2)cc(OC)c1OC`, the survival is inactive: 83%.
Turning to `Cc1ccc(C)c(NC(=O)c2oc(=O)c3ccccc3c2-c2ccccc2)c1`, the survival was inactive: 57%.
The result for `Cc1cc2nc(-c3ccc(OCc4ccccc4F)cc3)cc(C(F)(F)F)n2n1` reads inactive: 75%.
Consider `CCCc1nn2c(=O)cc(COC(=O)c3ccc4c(c3)OCO4)nc2s1`, for which the survival is inactive: 72%.
For the compound `O=C1/C(=N\O)CCc2c1no[n+]2[O-]`, the survival is inactive: 98%.
The result for `Cn1c(NCCN)nc2c1c(=O)n(Cc1ccccc1)c(=O)n2C` reads inactive: 86%; that for `CCN(CC)N=Nc1ccc(S(=O)(=O)N2CCSC2C(=O)O)cc1` (centres undefined), inactive: 109%; that for `CCOC(=O)c1cccc(NC(=O)C2=C(C)C(=O)OC23CCCCC3)c1`, inactive: 82%.
On to `Cc1ccc(C)c(N2CCN(C(=O)Cn3cnc4nc5c(cc4c3=O)CCCC5)CC2)c1`, for which the survival was inactive: 76%.
Turning to `Cc1ccc(C)c(Cn2c(SCC(=O)NCc3ccccc3)nc3ccccc32)c1`, the survival was inactive: 69%.
For `CCC(=O)N1CCc2cc(S(=O)(=O)NC(Cc3ccccc3)C(=O)Nc3cccc(OC)c3)ccc21` (centres undefined), the survival is inactive: 79%.
Regarding `Cc1cccc(N(C)c2ccc3cc(S(=O)(=O)N4CCCC4)ccc3n2)c1`, the survival was inactive: 72%.
In the case of `Cc1ccc2c(c1)c(N1CCCC1=O)c(C(=O)Nc1ccc(F)cc1F)n2C`, the survival is inactive: 83%.
Turning to `O=C(CCCCCn1c(=O)[nH]c2ccccc2c1=O)NCc1ccccc1`, the survival was inactive: 83%.
Consider `O=C(C1CCCN(S(=O)(=O)c2cccc3nsnc23)C1)N1CCN(c2ccccc2Cl)CC1` (centres undefined), for which the survival was inactive: 126%.
On to `Cc1ccc(-c2nnc3c4ccccc4c(C)nn23)cc1NC(=O)c1ccccc1Cl`, for which the survival was inactive: 68%.
Take `COc1cccc(N2CCN(c3ncnc4onc(-c5ccc(F)cc5)c34)CC2)c1`: the survival is inactive: 70%.
For the compound `Cc1ccc(S(=O)(=O)c2nnn3c2nc(N2CCCC2)c2sccc23)cc1`, the survival was inactive: 111%.
As for `CCOC(=O)c1cc(S(=O)(=O)N2CCN(c3ccc(C)cc3C)CC2)[nH]n1`, the figure is inactive: 72%.
As for `Cc1ccc(C)c(NC(=O)CSC2=Nc3ccccc3N=C(c3ccc(F)cc3)C2)c1`, the figure is inactive: 79%; as for `CN(C)c1ccc(NC(=O)Cn2cc(S(=O)(=O)Cc3cccc(Cl)c3)c3ccccc32)cc1`, inactive: 60%; as for `Cc1nc2scc(C)n2c(=O)c1S(=O)(=O)N1CCN(c2cccc(C(F)(F)F)c2)CC1`, inactive: 59%.
In the case of `COc1ccc(N2CC(NC(=O)c3cc4ccccc4o3)CC2=O)cc1` (centres undefined), the survival is inactive: 74%.
As for `Clc1ccccc1CN1CCN(Cc2ccco2)CC1`, the survival is inactive: 101%.
Take `CC(=O)c1cc(-c2ccccc2)n(CCC(=O)Nc2ccc(C)cc2C)c1C`: the survival is inactive: 85%.
Regarding `COC(=O)c1c(NC(=O)Nc2ccc(Cl)cc2)sc(C)c1C`, the survival was inactive: 82%.
Turning to `COc1ccccc1CNC(=O)CCC1N=C2c3ccccc3N=C(SCc3ccc(C)cc3)N2C1=O` (centres undefined), the survival was inactive: 118%.
As for `C=CCn1c(CNC(=O)c2ccccc2)n[nH]c1=S`, the figure is inactive: 110%; as for `O=C(COC(=O)C1CC(=O)N(Cc2ccco2)C1)c1ccc(OC(=O)c2ccco2)cc1` (centres undefined), inactive: 85%; as for `CC1CCN(C(=O)c2ccc(N3C(=O)c4ccccc4C3=O)cc2)CC1`, inactive: 108%.
In the case of `CC1Cc2cc(S(=O)(=O)NCCc3ccccc3)ccc2N1C(=O)C1CCC1` (centres undefined), the survival was inactive: 58%.
With `CCCc1nnc(NC(=O)c2cc(=O)c3cc(Cl)ccc3o2)s1`, the survival is inactive: 77%.
The result for `COc1ccc(CCC(=O)NCCc2csc(-c3ccc(C(F)(F)F)cc3)n2)cc1` reads inactive: 80%; that for `O=S1(=O)c2ccccc2-c2cc(Br)ccc21`, inactive: 121%.
For `Cc1ccc2c(c1)N(C(=O)Nc1cccc(C)c1C)CCO2`, the survival was inactive: 89%.
The result for `CS(=O)(=O)N1CCc2cc(C(=O)N3CCN(c4ccccc4)CC3)ccc21` reads inactive: 89%; that for `CC1CCC(N2CC(=O)N(C3CCCCC3)C(c3ccc(F)cc3)C2=O)CC1` (centres undefined), inactive: 99%; that for `COc1ccc(CNCCC(c2ccccc2)c2ccc3c(c2)OCO3)cc1` (centres undefined), active: 3%.
On to `O=C(NC1CCN(C(=S)NCc2ccco2)CC1)NC12CC3CC(CC(C3)C1)C2`, for which the survival is inactive: 108%.
Regarding `Cc1cc(C)cc(Oc2c(F)c(F)c(F)c(F)c2F)c1`, the survival is inactive: 96%.
For `Cc1cc(Br)ccc1NC(=O)c1ccc(NS(=O)(=O)c2c(C)noc2C)cc1`, the survival was inactive: 62%.
Consider `CCCC1=Nc2cc(C(=O)NCCc3ccccc3)ccc2Sc2ccc(C)cc21`, for which the survival was inactive: 98%.
With `CCNC(=S)N1C2CCCC1CC(NC(=O)C1CC1)C2` (centres undefined), the survival was inactive: 95%.
Regarding `CCOc1ccc(NC(=O)/C=C\C(=O)N(c2ccc(C(C)C)cc2)C(C(=O)NCc2ccco2)c2ccc(F)cc2)cc1` (centres undefined), the survival was inactive: 51%.
The result for `CCOc1ccc(-c2nc(SCC(=O)NC3CCCC3)c(-c3ccccc3)[nH]2)cc1OC` reads inactive: 73%.
The result for `COc1ccc(NC(=O)Cn2cnc3ccc(S(=O)(=O)N4CCC(C)CC4)cc3c2=O)cc1OC` reads inactive: 80%; that for `COc1cccc(-c2nc(SCC(=O)NC3CCCC3)c(-c3ccccc3)[nH]2)c1`, inactive: 72%; that for `CC(C)=CC(=O)Nc1nnc(Cc2ccccc2)s1`, inactive: 111%.
The result for `Cc1ccc(-c2noc(CCCC(=O)NCc3ccco3)n2)cc1` reads inactive: 88%.
For the compound `CCOc1ccc(CCNC(=O)CSc2cc(=O)n(C)c3cc(Cl)ccc23)cc1OCC`, the survival is inactive: 80%.
As for `O=C(CSc1nc(-c2cccs2)nc2cc(=O)[nH]n12)Nc1ccccc1F`, the survival is inactive: 60%.
As for `CCCOc1ccc(C(=O)Nc2ccc(Cl)c(-c3nc4ncccc4o3)c2)cc1`, the figure is inactive: 84%; as for `CCOc1ccc(CCNC(=O)CCc2c(C)nc3cc(-c4ccccc4OC)nn3c2C)cc1`, inactive: 88%; as for `CSc1ccc(CCNC(=O)CN2C(=O)c3cccnc3Oc3ccc(Cl)cc32)cc1`, inactive: 84%.
In the case of `Nc1nnc2c(Nc3ccccc3)nc3nonc3n12`, the survival is inactive: 115%.
The result for `Cc1c(-c2nsc(NC(=O)c3cccc(Cl)c3)n2)nnn1-c1ccccc1C(F)(F)F` reads active: -6%; that for `COc1cc(C(=O)N2CCc3c([nH]c4ccccc34)C2c2ccc(C)cc2)cc(OC)c1OC` (centres undefined), inactive: 95%.
In the case of `Nc1c(-c2nc(-c3ccc4c(c3)OCO4)cs2)c2ccccn2c1C(=O)c1ccccc1`, the survival was inactive: 86%.
As for `CCC(C(=O)Nc1ccccc1OC)n1nc(C)c2sc3ccccc3c2c1=O` (centres undefined), the figure is inactive: 93%.
With `Cc1ccc(C)c(OCC(=O)Nc2ccc(S(=O)(=O)Nc3onc(C)c3C)cc2)c1C`, the survival was inactive: 152%.
Consider `Cc1ccc(NC(=O)c2c(C)oc3nc(C)nc(N4CCCC4)c23)c(C)c1`, for which the survival was inactive: 79%.
Turning to `CCN(CCCNC(=O)CSc1cc(=O)n(CC)c2ccccc12)c1cccc(C)c1`, the survival is inactive: 75%.
Take `CC(Sc1cn(CCNC(=O)c2ccccc2F)c2ccccc12)c1ccccc1` (centres undefined): the survival was inactive: 44%.
For the compound `COc1cccc(-n2c(C)c3c(OC)cccc(=O)c3c2C)c1`, the survival was inactive: 99%.
The result for `Cc1ccc2c(=O)c(C(=O)c3ccc(Cl)cc3)cn(CC(=O)NC3CCCCC3)c2n1` reads inactive: 83%.
Consider `COc1ccc(NC(=O)c2c(NCc3sccc3C)sc3c2CCCCC3)c(OC)c1`, for which the survival is inactive: 94%.
`COc1ccc(C)cc1NC(=O)Cn1c(=O)ccc2cc(S(=O)(=O)N3CCC(C)CC3)ccc21`: the survival was inactive: 87%.
For the compound `CCOc1ccc(CCNC(=O)c2ccc(CS(=O)Cc3cccc(Cl)c3)o2)cc1` (centres undefined), the survival was inactive: 56%.
As to `COC(=O)c1ccc(NC(=O)CSc2ncc3c(n2)-c2cc(Cl)ccc2N(Cc2ccccc2)S3(=O)=O)cc1`, the survival is inactive: 49%.
As for `Cc1ccccc1-c1nnc(SCC(=O)c2ccccc2)o1`, the figure is inactive: 110%; as for `O=S(=O)(c1ccc(F)cc1)N(Cc1nc(-c2ccc(Cl)cc2)no1)C1CCCCC1`, inactive: 84%; as for `O=C(CCS(=O)(=O)c1cc(Br)cc2c1N(C(=O)C1CC1)CC2)NCc1ccccc1Cl`, inactive: 81%.
Consider `Cc1cc(C)c(C(N)=O)c(=S)[nH]1`, for which the survival is inactive: 94%.
`Cc1cc(N2CCCC2)c2ccccc2n1`: the survival was inactive: 121%.
In the case of `COc1ccc(Br)cc1C(=O)Nc1ccc(-c2nc3cc(Cl)ccc3o2)cc1`, the survival is inactive: 73%.
As to `Cc1c(NC(=O)c2cccc3c(Cl)cccc23)cccc1-c1nc2ccccc2o1`, the survival was inactive: 103%.
In the case of `CCOC(=O)N1CCc2c(sc3c2c(=O)n(Cc2ccccc2)c(=O)n3CC(=O)Nc2ccc(C)c(C)c2)C1`, the survival is inactive: 84%.
On to `CCC(C(=O)Nc1cc(F)ccc1F)n1nc(-c2cc(C)ccc2C)ccc1=O` (centres undefined), for which the survival is inactive: 75%.
Consider `COC(=O)C(C)n1nnc2sc(-c3ccccc3)cc2c1=O` (centres undefined), for which the survival was inactive: 88%.
In the case of `Cc1ccc(NC(=O)CCC(=O)N2CCSc3ccccc32)cc1Cl`, the survival was inactive: 87%.

Source of the values: PubChem BioAssay AID463173 (ICCB-Longwood Screening Facility, Harvard Medical School, 2010).
